Test results published in PMC9911399, “Two distinct binding modes provide the RNA-binding protein RbFox with extraordinary sequence specificity”.
Where a chain is given by its changes, count along the chain named. The list shows a part of the results.

T1: RBFOX1 RRM (Homo sapiens, UniProt Q9NWB1 109-208)
T1 sequence: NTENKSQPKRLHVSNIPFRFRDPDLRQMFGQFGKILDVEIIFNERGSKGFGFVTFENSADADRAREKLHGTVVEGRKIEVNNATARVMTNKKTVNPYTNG

B1: ACGUUUC (DNA:RNA)
RNA: GGGAGACCGGAAUUCAGAUUGUCCACGUUUCUUAAAUCCCGUCGUAGCCACCA
DNA 1: CAATCTGAATTCCGGTCTCCC
DNA 2: TGGTGGCTACGACGGGATT
B2: CGGGUUU (DNA:RNA)
RNA: B1 RNA with A25C, C26G, U28G, C31U
DNA 1: CAATCTGAATTCCGGTCTCCC
DNA 2: TGGTGGCTACGACGGGATT
B3: GGCGUCG (DNA:RNA)
RNA: B1 RNA with A25G, C26G, G27C, U28G, U30C, C31G
DNA 1: CAATCTGAATTCCGGTCTCCC
DNA 2: TGGTGGCTACGACGGGATT
B4: AAUUUAG (DNA:RNA)
RNA: B1 RNA with C26A, G27U, U30A, C31G
DNA 1: CAATCTGAATTCCGGTCTCCC
DNA 2: TGGTGGCTACGACGGGATT
B5: AGGAAAG (DNA:RNA)
RNA: B1 RNA with C26G, U28A, U29A, U30A, C31G
DNA 1: CAATCTGAATTCCGGTCTCCC
DNA 2: TGGTGGCTACGACGGGATT
B6: GGGCUUU (DNA:RNA)
RNA: B1 RNA with A25G, C26G, U28C, C31U
DNA 1: CAATCTGAATTCCGGTCTCCC
DNA 2: TGGTGGCTACGACGGGATT
B7: GUCGUGA (DNA:RNA)
RNA: B1 RNA with A25G, C26U, G27C, U28G, U30G, C31A
DNA 1: CAATCTGAATTCCGGTCTCCC
DNA 2: TGGTGGCTACGACGGGATT
B8: GGUGUGU (DNA:RNA)
RNA: B1 RNA with A25G, C26G, G27U, U28G, U30G, C31U
DNA 1: CAATCTGAATTCCGGTCTCCC
DNA 2: TGGTGGCTACGACGGGATT
B9: ACACGGA (DNA:RNA)
RNA: B1 RNA with G27A, U28C, U29G, U30G, C31A
DNA 1: CAATCTGAATTCCGGTCTCCC
DNA 2: TGGTGGCTACGACGGGATT
B10: GUGCCAC (DNA:RNA)
RNA: B1 RNA with A25G, C26U, U28C, U29C, U30A
DNA 1: CAATCTGAATTCCGGTCTCCC
DNA 2: TGGTGGCTACGACGGGATT
B11: UUCAACU (DNA:RNA)
RNA: GGGAGACCGGAAUUCAGAUUGUCCUUCAACUUUAAAUCCCGUCGUAGCCACCA
DNA 1: CAATCTGAATTCCGGTCTCCC
DNA 2: TGGTGGCTACGACGGGATT
B12: GAACCUG (DNA:RNA)
RNA: B1 RNA with A25G, C26A, G27A, U28C, U29C, C31G
DNA 1: CAATCTGAATTCCGGTCTCCC
DNA 2: TGGTGGCTACGACGGGATT
B13: CAUUGAG (DNA:RNA)
RNA: B1 RNA with A25C, C26A, G27U, U29G, U30A, C31G
DNA 1: CAATCTGAATTCCGGTCTCCC
DNA 2: TGGTGGCTACGACGGGATT
B14: UAGUCAA (DNA:RNA)
RNA: B1 RNA with A25U, C26A, U29C, U30A, C31A
DNA 1: CAATCTGAATTCCGGTCTCCC
DNA 2: TGGTGGCTACGACGGGATT
B15: GGGUACU (DNA:RNA)
RNA: B11 RNA with U25G, U26G, C27G, A28U
DNA 1: CAATCTGAATTCCGGTCTCCC
DNA 2: TGGTGGCTACGACGGGATT
B16: ACACAUG (DNA:RNA)
RNA: B1 RNA with G27A, U28C, U29A, C31G
DNA 1: CAATCTGAATTCCGGTCTCCC
DNA 2: TGGTGGCTACGACGGGATT
B17: UCUUUGC (DNA:RNA)
RNA: B1 RNA with A25U, G27U, U30G
DNA 1: CAATCTGAATTCCGGTCTCCC
DNA 2: TGGTGGCTACGACGGGATT
B18: UAUUUCC (DNA:RNA)
RNA: B1 RNA with A25U, C26A, G27U, U30C
DNA 1: CAATCTGAATTCCGGTCTCCC
DNA 2: TGGTGGCTACGACGGGATT
B19: GUGGGGA (DNA:RNA)
RNA: B1 RNA with A25G, C26U, U28G, U29G, U30G, C31A
DNA 1: CAATCTGAATTCCGGTCTCCC
DNA 2: TGGTGGCTACGACGGGATT
B20: AAAGACU (DNA:RNA)
RNA: B11 RNA with U25A, U26A, C27A, A28G
DNA 1: CAATCTGAATTCCGGTCTCCC
DNA 2: TGGTGGCTACGACGGGATT

Each binder was assayed against T1, RBFOX1 RRM (assay: EMSA; HiTS-Eq, 1 nM pool, 10 min; buffer printed only for the single-RNA assays: 10 mM Tris pH 7.5, 150 mM NaCl, 3.4 mM EDTA, 0.001% NP-40, 30 C). Conditions: tags: His6 N-terminal (pET28a); label: 5' 32P.
In short: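 Relative association constants, normalised to the cognate motif, were derived by comparing read counts of each RNA species with those of the control reaction. The RNA sequenced was the free fraction, separated by 8% native PAGE after a 10 min equilibration in 50 µL of 1 nM 5′-radiolabelled RNA (7 randomized nucleotides) with increasing concentrations of purified wild-type or mutant RbFox RRM.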

Binder	binding signal
B1	0.00793 KA relative to UGCAUGU
B2	0.0393 KA relative to UGCAUGU
B3	0.0143 KA relative to UGCAUGU
B4	0.0051 KA relative to UGCAUGU
B5	0.0184 KA relative to UGCAUGU
B6	0.0244 KA relative to UGCAUGU
B7	0.017 KA relative to UGCAUGU
B8	0.0173 KA relative to UGCAUGU
B9	0.0022 KA relative to UGCAUGU
B10	0.0082 KA relative to UGCAUGU
B11	0.00328 KA relative to UGCAUGU
B12	0.014 KA relative to UGCAUGU
B13	0.0155 KA relative to UGCAUGU
B14	0.00758 KA relative to UGCAUGU
B15	0.0165 KA relative to UGCAUGU
B16	0.00404 KA relative to UGCAUGU
B17	0.0199 KA relative to UGCAUGU
B18	0.00467 KA relative to UGCAUGU
B19	0.0134 KA relative to UGCAUGU
B20	0.00125 KA relative to UGCAUGU
